Experimental data from paper PMC9911399, “Two distinct binding modes provide the RNA-binding protein RbFox with extraordinary sequence specificity”.
Residue numbers refer to the chain shown, from its start. The list shows a part of the results.

B1: CAUGUAU (DNA:RNA)
RNA: GGGAGACCGGAAUUCAGAUUGUCCCAUGUAUUUAAAUCCCGUCGUAGCCACCA
DNA 1: CAATCTGAATTCCGGTCTCCC
DNA 2: TGGTGGCTACGACGGGATT
B2: CAUGGGA (DNA:RNA)
RNA: B1 RNA with U29G, A30G, U31A
DNA 1: CAATCTGAATTCCGGTCTCCC
DNA 2: TGGTGGCTACGACGGGATT
B3: UAGAUCC (DNA:RNA)
RNA: B1 RNA with C25U, U27G, G28A, A30C, U31C
DNA 1: CAATCTGAATTCCGGTCTCCC
DNA 2: TGGTGGCTACGACGGGATT
B4: CGUCCGC (DNA:RNA)
RNA: B1 RNA with A26G, G28C, U29C, A30G, U31C
DNA 1: CAATCTGAATTCCGGTCTCCC
DNA 2: TGGTGGCTACGACGGGATT
B5: AGGGAAC (DNA:RNA)
RNA: B1 RNA with C25A, A26G, U27G, U29A, U31C
DNA 1: CAATCTGAATTCCGGTCTCCC
DNA 2: TGGTGGCTACGACGGGATT
B6: GUCGUUA (DNA:RNA)
RNA: B1 RNA with C25G, A26U, U27C, A30U, U31A
DNA 1: CAATCTGAATTCCGGTCTCCC
DNA 2: TGGTGGCTACGACGGGATT
B7: CGUGAUG (DNA:RNA)
RNA: B1 RNA with A26G, U29A, A30U, U31G
DNA 1: CAATCTGAATTCCGGTCTCCC
DNA 2: TGGTGGCTACGACGGGATT
B8: CAAGAGG (DNA:RNA)
RNA: B1 RNA with U27A, U29A, A30G, U31G
DNA 1: CAATCTGAATTCCGGTCTCCC
DNA 2: TGGTGGCTACGACGGGATT
B9: UCCAUCC (DNA:RNA)
RNA: B1 RNA with C25U, A26C, U27C, G28A, A30C, U31C
DNA 1: CAATCTGAATTCCGGTCTCCC
DNA 2: TGGTGGCTACGACGGGATT
B10: CGGUCAU (DNA:RNA)
RNA: B1 RNA with A26G, U27G, G28U, U29C
DNA 1: CAATCTGAATTCCGGTCTCCC
DNA 2: TGGTGGCTACGACGGGATT
B11: UACGUAA (DNA:RNA)
RNA: B1 RNA with C25U, U27C, U31A
DNA 1: CAATCTGAATTCCGGTCTCCC
DNA 2: TGGTGGCTACGACGGGATT
B12: CGUAUGA (DNA:RNA)
RNA: B1 RNA with A26G, G28A, A30G, U31A
DNA 1: CAATCTGAATTCCGGTCTCCC
DNA 2: TGGTGGCTACGACGGGATT
B13: CUCUUUC (DNA:RNA)
RNA: B1 RNA with A26U, U27C, G28U, A30U, U31C
DNA 1: CAATCTGAATTCCGGTCTCCC
DNA 2: TGGTGGCTACGACGGGATT
B14: AAGUCGG (DNA:RNA)
RNA: B1 RNA with C25A, U27G, G28U, U29C, A30G, U31G
DNA 1: CAATCTGAATTCCGGTCTCCC
DNA 2: TGGTGGCTACGACGGGATT
B15: UCCACCG (DNA:RNA)
RNA: GGGAGACCGGAAUUCAGAUUGUCCUCCACCGUUAAAUCCCGUCGUAGCCACCA
DNA 1: CAATCTGAATTCCGGTCTCCC
DNA 2: TGGTGGCTACGACGGGATT
B16: UGGAACG (DNA:RNA)
RNA: B15 RNA with C26G, C27G, C29A
DNA 1: CAATCTGAATTCCGGTCTCCC
DNA 2: TGGTGGCTACGACGGGATT
B17: AAGUGUC (DNA:RNA)
RNA: B1 RNA with C25A, U27G, G28U, U29G, A30U, U31C
DNA 1: CAATCTGAATTCCGGTCTCCC
DNA 2: TGGTGGCTACGACGGGATT
B18: CCCGGCC (DNA:RNA)
RNA: B15 RNA with U25C, A28G, C29G, G31C
DNA 1: CAATCTGAATTCCGGTCTCCC
DNA 2: TGGTGGCTACGACGGGATT
B19: ACCAUGG (DNA:RNA)
RNA: B15 RNA with U25A, C29U, C30G
DNA 1: CAATCTGAATTCCGGTCTCCC
DNA 2: TGGTGGCTACGACGGGATT
B20: CGCCCGG (DNA:RNA)
RNA: B15 RNA with U25C, C26G, A28C, C30G
DNA 1: CAATCTGAATTCCGGTCTCCC
DNA 2: TGGTGGCTACGACGGGATT
B21: GCAUGGA (DNA:RNA)
RNA: B15 RNA with U25G, C27A, A28U, C29G, C30G, G31A
DNA 1: CAATCTGAATTCCGGTCTCCC
DNA 2: TGGTGGCTACGACGGGATT
B22: CUCUGCA (DNA:RNA)
RNA: B15 RNA with U25C, C26U, A28U, C29G, G31A
DNA 1: CAATCTGAATTCCGGTCTCCC
DNA 2: TGGTGGCTACGACGGGATT
B23: UUCGGGU (DNA:RNA)
RNA: B1 RNA with C25U, A26U, U27C, U29G, A30G
DNA 1: CAATCTGAATTCCGGTCTCCC
DNA 2: TGGTGGCTACGACGGGATT
B24: ACCAGUU (DNA:RNA)
RNA: B15 RNA with U25A, C29G, C30U, G31U
DNA 1: CAATCTGAATTCCGGTCTCCC
DNA 2: TGGTGGCTACGACGGGATT
B25: AUCACGC (DNA:RNA)
RNA: B15 RNA with U25A, C26U, C30G, G31C
DNA 1: CAATCTGAATTCCGGTCTCCC
DNA 2: TGGTGGCTACGACGGGATT
B26: UACGACG (DNA:RNA)
RNA: B15 RNA with C26A, A28G, C29A
DNA 1: CAATCTGAATTCCGGTCTCCC
DNA 2: TGGTGGCTACGACGGGATT
B27: CGCUUGG (DNA:RNA)
RNA: B1 RNA with A26G, U27C, G28U, A30G, U31G
DNA 1: CAATCTGAATTCCGGTCTCCC
DNA 2: TGGTGGCTACGACGGGATT
B28: UCCAUAC (DNA:RNA)
RNA: B15 RNA with C29U, C30A, G31C
DNA 1: CAATCTGAATTCCGGTCTCCC
DNA 2: TGGTGGCTACGACGGGATT
B29: AGGGUGU (DNA:RNA)
RNA: B1 RNA with C25A, A26G, U27G, A30G
DNA 1: CAATCTGAATTCCGGTCTCCC
DNA 2: TGGTGGCTACGACGGGATT
B30: GUCCGCU (DNA:RNA)
RNA: B15 RNA with U25G, C26U, A28C, C29G, G31U
DNA 1: CAATCTGAATTCCGGTCTCCC
DNA 2: TGGTGGCTACGACGGGATT
B31: AGCGGAC (DNA:RNA)
RNA: B1 RNA with C25A, A26G, U27C, U29G, U31C
DNA 1: CAATCTGAATTCCGGTCTCCC
DNA 2: TGGTGGCTACGACGGGATT

Target: T1, RBFOX1 RRM (Homo sapiens, UniProt Q9NWB1 109-208)
T1 sequence: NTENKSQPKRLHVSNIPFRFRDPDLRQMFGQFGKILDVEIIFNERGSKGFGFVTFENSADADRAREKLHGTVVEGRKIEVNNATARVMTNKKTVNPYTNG
Assay: EMSA; HiTS-Eq, 1 nM pool, 10 min; buffer printed only for the single-RNA assays: 10 mM Tris pH 7.5, 150 mM NaCl, 3.4 mM EDTA, 0.001% NP-40, 30 C
Details: tags: His6 N-terminal (pET28a); label: 5' 32P
Procedure, shortened: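 Relative association constants, normalised to the cognate motif, were derived by comparing read counts of each RNA species with those of the control reaction. The RNA sequenced was the free fraction, separated by 8% native PAGE after a 10 min equilibration in 50 µL of 1 nM 5′-radiolabelled RNA (7 randomized nucleotides) with increasing concentrations of purified wild-type or mutant RbFox RRM.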

Binder | binding signal
B1 | 0.00422 KA relative to UGCAUGU
B2 | 0.00261 KA relative to UGCAUGU
B3 | 0.00654 KA relative to UGCAUGU
B4 | 0.00928 KA relative to UGCAUGU
B5 | 0.021 KA relative to UGCAUGU
B6 | 0.00816 KA relative to UGCAUGU
B7 | 0.0112 KA relative to UGCAUGU
B8 | 0.00441 KA relative to UGCAUGU
B9 | 0.00253 KA relative to UGCAUGU
B10 | 0.00557 KA relative to UGCAUGU
B11 | 0.00661 KA relative to UGCAUGU
B12 | 0.0123 KA relative to UGCAUGU
B13 | 0.0103 KA relative to UGCAUGU
B14 | 0.00936 KA relative to UGCAUGU
B15 | 0.000901 KA relative to UGCAUGU
B16 | 0.0367 KA relative to UGCAUGU

Binder | binding signal
B17 | 0.0153 KA relative to UGCAUGU
B18 | 0.0171 KA relative to UGCAUGU
B19 | 0.00726 KA relative to UGCAUGU
B20 | 0.0262 KA relative to UGCAUGU
B21 | 0.0333 KA relative to UGCAUGU
B22 | 0.0148 KA relative to UGCAUGU
B23 | 0.00202 KA relative to UGCAUGU
B24 | 0.0033 KA relative to UGCAUGU
B25 | 0.0047 KA relative to UGCAUGU
B26 | 0.00278 KA relative to UGCAUGU
B27 | 0.0206 KA relative to UGCAUGU
B28 | 0.00023 KA relative to UGCAUGU
B29 | 0.0213 KA relative to UGCAUGU
B30 | 0.0113 KA relative to UGCAUGU
B31 | 0.00564 KA relative to UGCAUGU
